Data published in the RNAGym collection of RNA variant scans (doi:10.1093/nar/gkz1192).
Read counts are not given, so values of variants with three or more changes are uncertain.

B1: CPEB3 Ribozyme (parent)
chain: UAACAGGGGGCCACAGCAGAAGCGUUCACGUCGCAGCCCCUGUCAGAUUCUGGUGAAUCUGCGAAUUCUGCUGUAUAUCUC

Variants of: B1
Experiment: self-cleavage, relative activity (ratio to wild type); higher = more cleavage; in vitro, sequencing
Outline: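 After error-prone PCR and barcoding, CPEB3 ribozyme mutant libraries were transcribed with T7 RNA polymerase at 37°C for 5 hours, then given 15 min with DNase I before an EDTA stop, and they cleaved during both steps. Reverse transcription with template switching preceded Illumina sequencing. Relative activity divides a variant's cleaved/total read fraction by the unmutated ribozyme's. At least 5 reads were required per variant, and three batches were averaged.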
UAACAGGGGGCCACAGCAGAGGCGUUCACGUCGCAGCCCCUGUCAGAUACAGGUGAAUCUGCGAAUUCUGCUGUGUAUCUC [A21G U49A U51A A75G] gave a self-cleavage of 0.1.
Work on UAACAGGGGGCCACAGCAGAGGCGUUCACGUCGCAGCCCCUGUCAGAUACUGGUGAAUCUGCGAAUUCCGCUGCAUAUCUC [A21G U49A U69C U74C] yielded a self-cleavage of 0.17.
For UAACAGGGGGCCACAGCAGAGGCGUUCACGUCGCAGCCCCUGUCAGAUCCUGGUGGAUCUGCGAAUUCAGCUGUAUAUCUC [A21G U49C A56G U69A], the self-cleavage was 0.26.
Variant UAACAGGGGGCCACAGCAGAGGCGUUCACGUCGCAGCCCCUGUCAGAUCCUGGUGAAUCUACGAAUUCUGCUGUAUAUCUC [A21G U49C G61A] has a self-cleavage of 0.07.
For UAACAGGGGGCCACAGCAGAGGCGUUCACGUCGCAGCCCCUGUCAGAUCCAGGUGAAUCUGCGAAUUCUGCUGUAUAUCUC [A21G U49C U51A], the self-cleavage was 0.41.
UAACAGGGGGCCACAGCAGAGGCGUUCACGUCGCAGCCCCUGUCAGAUCCUGGCGAAUCUGAGAAUUCUGAUGUUUAUCUC [A21G U49C U54C C62A C71A A75U] gave a self-cleavage of 0.06.
UAACAGGGGGCCACAGCAGAGGCGUUCACGUCGCAGCCCCUGUCAGAUCCUGGUGAAUCUGCGAAUUCUGCAGUAUAUCUC [A21G U49C U72A] gave a self-cleavage of 0.07.
UAACAGGGGGCCACAGCAGAGGCGUUCACGUCGCAGCCCCUGUCAGAUCCUGGUGAAUCUGCGAAUUCUGCCGUACAUCUC [A21G U49C U72C U76C] showed a self-cleavage of 0.19.
In the case of UAACAGGGGGCCACAGCAGAGGCGUUCACGUCGCAGCCCCUGUCAGAUCCUGGUGAAUCUGCGAAUUCUGCUGUACAUCUC [A21G U49C U76C], the self-cleavage is reported as 0.29.
For UAACAGGGGGCCACAGCAGAGGCGUUCACGUCGCAGCCCCUGUCAGAUCCUGGUGAAUCUGCGAAUUCUGCUGUAUAUCAC [A21G U49C U80A], the self-cleavage was 0.24.
UAACAGGGGGCCACAGCAGAGGCGUUCACGUCGCAGCCCCUGUCAGAUUCAGGUGAAUCUGCGAAUUCAGCAGUAUAUCCC [A21G U51A U69A U72A U80C] gave a self-cleavage of 0.15.
UAACAGGGGGCCACAGCAGAGGCGUUCACGUCGCAGCCCCUGUCAGAUUCCGGUGAUUCUGCGAAUUCUGCUGUAUAUCUC [A21G U51C A57U] gave a self-cleavage of 0.35.
With UAACAGGGGGCCACAGCAGAGGCGUUCACGUCGCAGCCCCUGUCAGAUUCCUGUGGAUCUGCGGAUUCUGCUGUACACCUC [A21G U51C G52U A56G A64G U76C U78C] the self-cleavage was 0.14.
In the case of UAACAGGGGGCCACAGCAGAGGCGUUCACGUCGCAGCCCCUGUCAGAUUCCGGCGAAUCUGCGAAUUCUGCUGUAUAUCUC [A21G U51C U54C], the self-cleavage is reported as 0.32.
UAACAGGGGGCCACAGCAGAGGCGUUCACGUCGCAGCCCCUGUCAGAUUCCGGUGAAUCUGCGAAUCCUGCUGUAAAUCUC [A21G U51C U67C U76A] showed a self-cleavage of 0.11.
UAACAGGGGGCCACAGCAGAGGCGUUCACGUCGCAGCCCCUGUCAGAUUCCGGUGAAUCUGCGAAUUCUGCCGUAUAUCUC [A21G U51C U72C] showed a self-cleavage of 0.59.
UAACAGGGGGCCACAGCAGAGGCGUUCACGUCGCAGCCCCUGUCAGAUUCUGGAGAAUCUGCGAAUUCUGCUGUAUAUUUC [A21G U54A C79U] showed a self-cleavage of 0.85.
UAACAGGGGGCCACAGCAGAGGCGUUCACGUCGCAGCCCCUGUCAGAUUCUGGAGAAUCUGCGAAUUCUGCUGUAUAUCUU [A21G U54A C81U] gave a self-cleavage of 0.9.
Work on UAACAGGGGGCCACAGCAGAGGCGUUCACGUCGCAGCCCCUGUCAGAUUCUGGAGAAUCUGCGAAUACCGCUGUAUAUCUC [A21G U54A U67A U69C] yielded a self-cleavage of 0.25.
Work on UAACAGGGGGCCACAGCAGAGGCGUUCACGUCGCAGCCCCUGUCAGAUUCUGGAGAAUCUGCGAAUUCUGCUGCAUAUCUC [A21G U54A U74C] yielded a self-cleavage of 1.06.
UAACAGGGGGCCACAGCAGAGGCGUUCACGUCGCAGCCCCUGUCAGAUUCUGGCGAGUCUGCGAAUUCUGCUGUAUAUCUC [A21G U54C A57G] showed a self-cleavage of 0.37.
For UAACAGGGGGCCACAGCAGAGGCGUUCACGUCGCAGCCCCUGUCAGAUUCUGGCGAAUCUGCGCAUUCUGCUGUAUAUCUC [A21G U54C A64C], the self-cleavage was 0.46.
With UAACAGGGGGCCACAGCAGAGGCGUUCACGUCGCAGCCCCUGUCAGAUUCUGGCGAAUCUGCGAGUUCUGCUGUAUAUCCC [A21G U54C A65G U80C] the self-cleavage was 0.13.
UAACAGGGGGCCACAGCAGAGGCGUUCACGUCGCAGCCCCUGUCAGAUUCUGGCGAAUCUGAGAAUUCUGCUGUAUAUCUC [A21G U54C C62A] gave a self-cleavage of 0.08.
Variant UAACAGGGGGCCACAGCAGAGGCGUUCACGUCGCAGCCCCUGUCAGAUUCUGGCGAAUCUGCGAAUUCUGCUGUAUAUUUC [A21G U54C C79U] has a self-cleavage of 0.66.
For UAACAGGGGGCCACAGCAGAGGCGUUCACGUCGCAGCCCCUGUCAGAUUCUGGCUAAUCUGCGAAUUCUGCUGUAAAUCUC [A21G U54C G55U U76A], the self-cleavage was 0.45.
UAACAGGGGGCCACAGCAGAGGCGUUCACGUCGCAGCCCCUGUCAGAUUCUGGCGAAUCUGCGAAUUCUGCUCUAUAUCUC [A21G U54C G73C] gave a self-cleavage of 1.19.
With UAACAGGGGGCCACAGCAGAGGCGUUCACGUCGCAGCCCCUGUCAGAUUCUGGCGAAUCUGCGAAUCCUGCUGUAUAUCUC [A21G U54C U67C] the self-cleavage was 0.26.
In the case of UAACAGGGGGCCACAGCAGAGGCGUUCACGUCGCAGCCCCUGUCAGAUUCUGGCGAAUCUGCGAAUUCUGCUGUAGAUCUC [A21G U54C U76G], the self-cleavage is reported as 0.58.
For UAACAGGGGGCCACAGCAGAGGCGUUCACGUCGCAGCCCCUGUCAGAUUCUGGUGAAACUGCGAAUUCUGCUGGAUAUCUC [A21G U58A U74G], the self-cleavage was 0.24.
Work on UAACAGGGGGCCACAGCAGAGGCGUUCACGUCGCAGCCCCUGUCAGAUUCUGGUGAACCUACGAAUUCUGCUGUAUACCUC [A21G U58C G61A U78C] yielded a self-cleavage of 0.17.
UAACAGGGGGCCACAGCAGAGGCGUUCACGUCGCAGCCCCUGUCAGAUUCUGGUGAACCUGCGAAUUCUGCUGAAUAACUC [A21G U58C U74A U78A] gave a self-cleavage of 0.39.
UAACAGGGGGCCACAGCAGAGGCGUUCACGUCGCAGCCCCUGUCAGAUUCUGGUGAACCUGCGAAUUCUGCUGUAUACCUC [A21G U58C U78C] showed a self-cleavage of 0.21.
For UAACAGGGGGCCACAGCAGAGGCGUUCACGUCGCAGCCCCUGUCAGAUUCUGGUGAAUCAGCGGACUCUGCUGUAUAUCUC [A21G U60A A64G U66C], the self-cleavage was 0.13.
